Assay results taken from PubChem BioAssay AID463173 (ICCB-Longwood Screening Facility, Harvard Medical School, 2010).
Screen size: about 52,000 compounds; about 4,300 (8.3%) were called active. Cut-off read from the data, not from the text of the source: active = survival mostly below about 52% (no sharp cut-off); inactive = mostly above about 56%. Some of the results follow.

test system: DeltatarO mutant; assay: S. aureus survival, RN4220 and DeltatarO strains – OD600, teichoic acid synthesis inhibitors, primary screen (AID 463173); conditions: S. aureus RN4220 wild type/DeltatarO growth, OD600, 18 h, stronger effect = lower value, screened at 18.75 µg/mL (by protocol)

SMILES	survival
CCOc1ccc(-c2cn3c(n2)sc2cc(C(=O)NCCc4ccc(OC)c(OC)c4)ccc23)cc1	active: 49%
Cc1ccc(C2=NN(CC(=O)NCCc3ccc(Cl)cc3)C(=O)CC2)cc1	inactive: 117%
Nc1ccc2nc(CN3CCOCC3)[nH]c2c1	inactive: 88%
O=C(Nc1ccc(F)cc1Cl)C1Cc2ccccc2N1C(=O)c1ccccc1 (stereo unspecified)	inactive: 85%
O=C(CCn1nc(-c2ccc(Cl)cc2)c2ccccc2c1=O)Nc1ccc(OC(F)(F)F)cc1	inactive: 135%
Cc1ccc(Cl)cc1N1CCN(C(=O)C2CCN(S(=O)(=O)c3ccc4c(c3)oc(=O)n4C)CC2)CC1	inactive: 80%
CC(=O)c1cccc(NC(=O)c2nc3ccccc3nc2N2CCCCC2)c1	inactive: 71%
COc1ccc(OC)c(CNC(=O)C2CCN(c3ncnc4c3nc3n4CCCCC3)CC2)c1	inactive: 91%
Cc1cc(C)nc(Nc2ccc(S(N)(=O)=O)cc2)n1	inactive: 83%
CCOc1cc(C(=O)NCCc2csc(-c3ccc(C)cc3)n2)cc(OCC)c1OCC	inactive: 87%
Cc1ccc(S(=O)(=O)/N=C(\N)Nc2nc3ccccc3o2)cc1	inactive: 84%
CN(C(=O)c1cc2c(=O)n3ccccc3nc2n1C)c1ccccc1	inactive: 52%
COc1ccc(CCNC(=O)CCn2c(=O)c3cccn3c3cccnc32)c(OC)c1OC	inactive: 83%
Cc1cccc(NC(=O)N2CCC(n3c(C)nc4cccnc43)CC2)c1	inactive: 79%
O=C1C=CC(=O)C(c2ccc(Cl)cc2)=C1	inactive: 66%
O=C(CSc1nccn1Cc1ccccc1)Nc1ccc2c(c1)OCO2	inactive: 90%
CCOC(=O)N1CCC(NC(=O)c2ccc3c(c2)N(Cc2cc(C)ccc2C)C(=O)c2ccccc2S3=O)CC1 (stereo unspecified)	active: 42%
CCC(C)(C)NC(=O)Cn1c(=O)ccc2cc(S(=O)(=O)N3CCC(C)CC3)ccc21	inactive: 92%
CCOc1ccc(OCC)c(Nc2cc(C)nc3nc(-c4ccco4)nn23)c1	active: 17%
CC(=O)N1c2ccc(S(=O)(=O)N3CCCCCC3)cc2CC1C(=O)NCc1ccccc1F (stereo unspecified)	inactive: 119%
Cc1ccc(CNc2ccc(-c3nc(-c4ccccn4)no3)cc2[N+](=O)[O-])cc1	inactive: 104%
O=C(c1ccc([N+](=O)[O-])cc1)N1CCN(c2ccc(Nc3ccccc3)nn2)CC1	inactive: 83%
CCOc1ccc(CCNC(=O)CN2C(=O)c3cccnc3Oc3ccc(Cl)cc32)cc1	inactive: 94%

SMILES	survival
CC(=O)Nc1nnc(SCc2cc(=O)c3cccc(Cl)c3[nH]2)s1	inactive: 80%
CCOc1ccc(CCNC(=O)Cn2nnc(-c3ccc(C(F)(F)F)cc3)n2)cc1OCC	inactive: 82%
O=C1CC(=O)SC(c2ccccc2)=N1	inactive: 96%
Cn1cc(CCCC(=O)NCc2ccccc2Cl)c2ccccc21	inactive: 75%
CCOC(=O)c1c(NC(=O)CSc2nc(-c3ccccc3)cc(C(F)(F)F)n2)sc(C)c1C	inactive: 48%
O=C(CCC1CCCC1)NCc1ccccn1	inactive: 88%
COc1ccc(OC)c(NC(=O)N2c3ccccc3Sc3ccccc32)c1	active: 5%
Cc1ccc(OCc2nc(-c3ccc(C(=O)N4CCN(c5ccccc5)CC4)cc3)oc2C)cc1	inactive: 80%
O=C(NCc1ccccc1Cl)c1ccc(Nc2nc3ccccc3n3nnnc23)cc1	inactive: 84%
Cc1c(NC(=O)Nc2ccc(F)c(Cl)c2)c(=O)n(-c2ccccc2)n1C	inactive: 88%
Cc1nn(CCC(=O)N2CCN(c3ccccc3)CC2)c(C)c1S(=O)(=O)N1CCCC1	active: -5%
CCc1cnc2c(c1SCC(=O)N1CCC(C)CC1)c(=O)n(C)c(=O)n2C	inactive: 92%
CCCCN(CCCC)CCNC(=O)c1cn(C)c2ccc(S(=O)(=O)N3CCCC3)cc2c1=O	inactive: 150%
CCOC(=O)c1c(S(=O)(=O)N2CCC(C(=O)Nc3ccc(OCC)cc3)CC2)c(C)n(C)c1C	inactive: 99%
CC1CCN(S(=O)(=O)c2ccc3nc(Nc4ccc(C#N)cc4)ccc3c2)CC1	inactive: 86%
N#CC(C#N)=C(N1CCOCC1)C(F)(F)F	inactive: 98%
COc1cccc(CNC(=O)C2CCN(S(=O)(=O)N3CCC(C)CC3)CC2)c1	inactive: 67%
COc1ccccc1CNS(=O)(=O)c1ccc(F)c(C(=O)Nc2cc(Cl)ccc2OC)c1	inactive: 79%
O=C(NCC(c1cccnc1)N1CCc2ccccc2C1)C(=O)Nc1ccccc1 (stereo unspecified)	inactive: 81%
Cc1cccc(OCCSc2nc(-c3cccs3)nc3cc(=O)[nH]n23)c1	inactive: 93%
COc1ccccc1N1CCN(S(=O)(=O)c2c(C)nc3sc(C)c(C)n3c2=O)CC1	inactive: 83%
CSc1ccc(CNC(=O)c2cc3cc(S(=O)(=O)N4CCCCC4)ccc3n2C)cc1	inactive: 95%
CCOC(=O)c1c(Nc2cc(C)cc(C)c2)nnc(-c2ccccc2)c1-c1ccccc1	active: 32%

SMILES	survival
CCCCC(=O)OC1=C(C(=O)c2ccccc2)N(C)S(=O)(=O)c2ccccc21	inactive: 104%
Cn1nc(-c2ccc(C(=O)Nc3cccc(C(F)(F)F)c3)cc2)c2ccccc2c1=O	inactive: 57%
CC(=O)NC1C(=O)N=C(SCC(=O)NC(C)c2ccccc2)NC1=O (stereo unspecified)	inactive: 75%
O=C(Nc1ccc(F)cc1F)c1cnn(-c2ccc(F)cc2)c1-n1cccc1	inactive: 80%
CCOc1ccccc1NC(=O)CN1c2ccccc2S(=O)(=O)c2ccccc21	active: 37%
COc1ccc(CNS(=O)(=O)c2cnc(N)nc2)cc1	active: -2%
CCOc1ccc(NS(=O)(=O)c2ccc3[nH]cc(C(=O)NCc4ccccc4)c(=O)c3c2)cc1	inactive: 79%
Cc1cccc(CNC(=O)c2ccc3c(c2)N(C)C(=O)C2CCCCN32)c1 (stereo unspecified)	active: 0%
COc1cccc2c1Oc1ncccc1N(C(=O)Nc1cccc(Cl)c1)C2	inactive: 79%
COC(=O)C1=CN(CCCN2CCCC2=O)C=C(C(=O)OC)C1c1cccc(F)c1	inactive: 74%
O=C(CCn1c(=O)c2cccn2c2ccccc21)Nc1ccc(F)cc1	inactive: 50%
CCCCCNC(=O)c1ccc2c(c1)nc(C)n2-c1cccc(C)c1	active: 0%
O=C(NCc1ccccc1Cl)C1COc2ccccc2O1 (stereo unspecified)	inactive: 98%
Cc1cc(C)n(-c2nnc(Nc3cc(Cl)ccc3C)c3ccccc23)n1	inactive: 67%
Cc1ccc(C)c(NC(=O)Cn2c(=O)ccc3cc(S(=O)(=O)N4CCCC4)ccc32)c1	inactive: 64%
O=C1C2=C(Nc3ccccc3SC2c2ccccc2C(F)(F)F)c2ccccc21 (stereo unspecified)	active: 24%
O=C(NCc1cccs1)c1ccc(CSc2nc3cccnc3n2Cc2ccccc2)cc1	inactive: 103%
O=C(Nc1ccccc1N1CCN(c2ccccc2)CC1)c1ccccc1	inactive: 110%
Cc1nc(-c2ccc(C)c(S(=O)(=O)N3CCC(C(=O)Nc4ccc(Cl)cc4)CC3)c2)no1	inactive: 128%
Cc1ccccc1NC(=O)c1ccc(F)c(S(=O)(=O)N(C)C2CCCCC2)c1	inactive: 86%
COc1ccc(NC(=O)c2sc3nc4c(cc3c2N)CCCCCC4)cc1OC	inactive: 53%
Cc1nn(C)c(C)c1S(=O)(=O)N(CC(=O)N1CCN(c2ccccc2)CC1)c1ccc(C(C)C)cc1	inactive: 79%
CCOc1ccccc1NC(=O)C1CCN(S(=O)(=O)c2ccc3[nH]c4c(c3c2)CCCCC4)CC1	inactive: 101%

SMILES	survival
CCOc1ccc(CCNC(=O)c2cccc(-n3c(C)nc4cccnc43)c2)cc1	inactive: 90%
COc1ccc(-c2nnc3c4ccccc4c(-c4ccccc4)nn23)cc1	inactive: 96%
O=C(Nc1ccccc1F)c1ccc(-c2ccccc2)s1	inactive: 81%
c1ccc(CCn2nnnc2C(c2cccnc2)N2CCCCC2)cc1 (stereo unspecified)	inactive: 82%
O=C(NC1CCS(=O)(=O)C1)Sc1ccccc1 (stereo unspecified)	inactive: 96%
CCOC(=O)c1nnn(CC(=O)NC(=O)Nc2cccc(CC)c2)c1C(=O)OCC	inactive: 64%
CCN(CC)C(=O)c1sc2c(c1C)c(=O)n(-c1ccc(Cl)c(Cl)c1)c(=O)n2CC(=O)Nc1cccc(OC)c1	inactive: 70%
O=C(COc1ccc(Cl)cc1)NCCc1csc(-c2ccc(F)cc2)n1	inactive: 77%
CC1Cc2cc(S(=O)(=O)N(C)c3ccc(Br)cc3)ccc2N1C(=O)C1CC1 (stereo unspecified)	inactive: 94%
Fc1ccc(Cc2cn3cc(-c4ccc(Cl)cc4)nc3s2)cc1	inactive: 78%
CCC1CCCCN1CCCNC(=O)c1cc2c(=O)n(CC)c3ccccc3c2s1 (stereo unspecified)	inactive: 114%
COc1ccc(NC(=O)C2CCCN(S(=O)(=O)c3cccs3)C2)cc1 (stereo unspecified)	inactive: 96%
COc1ccc(CNC(=O)C2CCN(S(=O)(=O)c3ccc(C)cc3)CC2)cc1	active: 56%
O=c1[nH]c(O)c(C=NCCCn2ccnc2)c(=O)[nH]1	inactive: 103%
CCN1CCN(C(c2ccccc2)c2c(O)cc(C)n(Cc3ccco3)c2=O)CC1 (stereo unspecified)	inactive: 94%
COc1cc2ccccc2cc1C(=O)Nc1ccc2oc(-c3ccccc3)nc2c1	active: 8%
CCOc1ccccc1C(=O)N(Cc1cccs1)c1ccc(Cl)cc1	inactive: 62%
Cc1ccc(Nc2cc(C(=O)NCc3cccs3)c3ccccc3n2)c(C)c1	inactive: 72%
Cc1ccc(NC(=O)Cc2coc3c(C)c(C)ccc23)cc1Cl	inactive: 80%
CC1(C)CC(=O)C2=C(C1)Nc1ccccc1N1C(=O)c3ccccc3C21 (stereo unspecified)	inactive: 70%
Cc1ccc(NC(=O)c2ccc3[nH]c(C)cc(=O)c3c2)c(C)c1	inactive: 85%
COc1ccc(Nc2ncc3c(n2)CCN(C(=O)OC(C)(C)C)C3)cc1	inactive: 65%
